# Measured values as given in patent US8992932B2 (Seattle Genetics, Inc., dated 2015).
# T1: C4.4a on A549 cells transfected with the sequence for the complete C4.4a receptor (Homo sapiens)
# T1 chain: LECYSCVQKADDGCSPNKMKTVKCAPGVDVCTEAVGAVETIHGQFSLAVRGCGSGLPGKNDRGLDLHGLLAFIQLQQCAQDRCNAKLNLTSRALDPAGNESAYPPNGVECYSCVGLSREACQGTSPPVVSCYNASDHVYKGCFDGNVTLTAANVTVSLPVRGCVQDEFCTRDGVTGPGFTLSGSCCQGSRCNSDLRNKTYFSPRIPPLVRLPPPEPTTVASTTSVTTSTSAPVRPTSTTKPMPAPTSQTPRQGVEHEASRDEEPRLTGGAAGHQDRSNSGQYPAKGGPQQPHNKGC
# B1: ADC of Example 26 (antibody)
# heavy: QVELLESGGGLVQPGGSLRLSCAASGFTFSNAWMSWVRQAPGKGLEWVSYISSSGSTIYYADSVKGRFTISRDNSKNTLYLQMNSLRAEDTAVYYCAREGLWAFDYWGQGTLVTVSS[in this place human IgG1 constant region]
# light: DIVLTQPPSASGTPGQRVTISCTGSSSNIGAGYVVHWYQQLPGTAPKLLIYDNNKRPSGVPDRFSGSKSGTSASLAISGLRSEDEADYYCAAWDDRLNGPVFGGGTKLTVLGQPKAAPSVTLFPPSSEELQANKATLVCLISDFYPGAVTVAWKGDSSPVKAGVETTTPSKQSNNKYAASSYLSLTPEQWKSHRSYSCQVTHEGSTVEKTVAPTECS
# modifications: toxophore-linker on Cys (via S); toxophore-linker on Cys (via S)
# B2: ADC of Example 28 (antibody)
# heavy: B1 heavy
# light: B1 light
# modifications: toxophore-linker on Cys (via S); toxophore-linker on Cys (via S)
# B3: ADC of Example 92 (antibody)
# heavy: B1 heavy with Q1E, E3Q
# light: B1 light with D1E, I2S, A10V, T13A, G155A
# modifications: toxophore-linker on Cys (via S); toxophore-linker on Cys (via S)
# B4: ADC of Example 33 (antibody)
# heavy: B1 heavy
# light: B1 light
# modifications: toxophore-linker on Cys (via S); toxophore-linker on Cys (via S)
# B5: ADC of Example 86 (antibody)
# heavy: B1 heavy with Q1E, E3Q
# light: B1 light with D1E, I2S, A10V, T13A, G155A
# modifications: toxophore-linker on Lys (via NH); toxophore-linker on Lys (via NH)
# B6: ADC of Example 94 (antibody)
# heavy: B1 heavy with Q1E, E3Q
# light: B1 light with D1E, I2S, A10V, T13A, G155A
# modifications: toxophore-linker on Cys (via S); toxophore-linker on Cys (via S)
# B7: ADC of Example 110 (antibody)
# heavy: B1 heavy with Q1E, E3Q
# light: B1 light with D1E, I2S, A10V, T13A, G155A
# modifications: toxophore-linker on Cys (via S); toxophore-linker on Cys (via S)
# B8: ADC of Example 104 (antibody)
# heavy: B1 heavy with Q1E, E3Q
# light: B1 light with D1E, I2S, A10V, T13A, G155A
# modifications: toxophore-linker on Lys (via NH); toxophore-linker on Lys (via NH)
# B9: ADC of Example 105 (antibody)
# heavy: B1 heavy with Q1E, E3Q
# light: B1 light with D1E, I2S, A10V, T13A, G155A
# modifications: toxophore-linker on Lys (via NH); toxophore-linker on Lys (via NH)
# B10: ADC of Example 99 (antibody)
# heavy: B1 heavy with Q1E, E3Q
# light: B1 light with D1E, I2S, A10V, T13A, G155A
# modifications: toxophore-linker on Lys (via NH); toxophore-linker on Lys (via NH)
# B11: ADC of Example 98 (antibody)
# heavy: B1 heavy with Q1E, E3Q
# light: B1 light with D1E, I2S, A10V, T13A, G155A
# modifications: toxophore-linker on Cys (via S); toxophore-linker on Cys (via S)
# B12: ADC of Example 103 (antibody)
# heavy: B1 heavy with Q1E, E3Q
# light: B1 light with D1E, I2S, A10V, T13A, G155A
# modifications: toxophore-linker on Lys (via NH); toxophore-linker on Lys (via NH)
# B13: ADC of Example 80 (antibody)
# heavy: B1 heavy with Q1E, E3Q
# light: B1 light with D1E, I2S, A10V, T13A, G155A
# modifications: toxophore-linker on Cys (via S); toxophore-linker on Cys (via S)
# B14: ADC of Example 112 (antibody)
# heavy: B1 heavy with Q1E, E3Q
# light: B1 light with D1E, I2S, A10V, T13A, G155A
# modifications: toxophore-linker on Cys (via S); toxophore-linker on Cys (via S)
# B15: ADC of Example 93 (antibody)
# heavy: B1 heavy with Q1E, E3Q
# light: B1 light with D1E, I2S, A10V, T13A, G155A
# modifications: toxophore-linker on Cys (via S); toxophore-linker on Cys (via S)
# B16: ADC of Example 100 (antibody)
# heavy: B1 heavy with Q1E, E3Q
# light: B1 light with D1E, I2S, A10V, T13A, G155A
# modifications: toxophore-linker on Lys (via NH); toxophore-linker on Lys (via NH)
# B17: ADC of Example 91 (antibody)
# heavy: B1 heavy with Q1E, E3Q
# light: B1 light with D1E, I2S, A10V, T13A, G155A
# modifications: toxophore-linker on Lys (via NH); toxophore-linker on Lys (via NH)
# B18: ADC of Example 120 (antibody)
# heavy: B1 heavy with Q1E, E3Q
# light: B1 light with D1E, I2S, A10V, T13A, G155A
# modifications: toxophore-linker on Lys (via NH); toxophore-linker on Lys (via NH)
# B19: ADC of Example 84 (antibody)
# heavy: B1 heavy with Q1E, E3Q
# light: B1 light with D1E, I2S, A10V, T13A, G155A
# modifications: toxophore-linker on Cys (via S); toxophore-linker on Cys (via S)
# B20: ADC of Example 118 (antibody)
# heavy: B1 heavy with Q1E, E3Q
# light: B1 light with D1E, I2S, A10V, T13A, G155A
# modifications: toxophore-linker on Lys (via NH); toxophore-linker on Lys (via NH)
# B21: ADC of Example 54 (antibody)
# heavy: B1 heavy with Q1E, E3Q
# light: B1 light with D1E, I2S, A10V, T13A, G155A
# modifications: toxophore-linker on Cys (via S); toxophore-linker on Cys (via S)
# B22: ADC of Example 97 (antibody)
# heavy: B1 heavy with Q1E, E3Q
# light: B1 light with D1E, I2S, A10V, T13A, G155A
# modifications: toxophore-linker on Cys (via S); toxophore-linker on Cys (via S)
# B23: ADC of Example 81 (antibody)
# heavy: B1 heavy with Q1E, E3Q
# light: B1 light with D1E, I2S, A10V, T13A, G155A
# modifications: toxophore-linker on Lys (via NH); toxophore-linker on Lys (via NH)
# B24: ADC of Example 83 (antibody)
# heavy: B1 heavy with Q1E, E3Q
# light: B1 light with D1E, I2S, A10V, T13A, G155A
# modifications: toxophore-linker on Cys (via S); toxophore-linker on Cys (via S)
# B25: ADC of Example 119 (antibody)
# heavy: B1 heavy with Q1E, E3Q
# light: B1 light with D1E, I2S, A10V, T13A, G155A
# modifications: toxophore-linker on Cys (via S); toxophore-linker on Cys (via S)
# B26: ADC of Example 109 (antibody)
# heavy: B1 heavy with Q1E, E3Q
# light: B1 light with D1E, I2S, A10V, T13A, G155A
# modifications: toxophore-linker on Cys (via S); toxophore-linker on Cys (via S)
# B27: ADC of Example 107 (antibody)
# heavy: B1 heavy with Q1E, E3Q
# light: B1 light with D1E, I2S, A10V, T13A, G155A
# modifications: toxophore-linker on Cys (via S); toxophore-linker on Cys (via S)
# B28: ADC of Example 32 (antibody)
# heavy: B1 heavy
# light: B1 light
# modifications: toxophore-linker on Cys (via S); toxophore-linker on Cys (via S)
# B29: ADC of Example 102 (antibody)
# heavy: B1 heavy with Q1E, E3Q
# light: B1 light with D1E, I2S, A10V, T13A, G155A
# modifications: toxophore-linker on Lys (via NH); toxophore-linker on Lys (via NH)
# B30: ADC of Example 101 (antibody)
# heavy: B1 heavy with Q1E, E3Q
# light: B1 light with D1E, I2S, A10V, T13A, G155A
# modifications: toxophore-linker on Lys (via NH); toxophore-linker on Lys (via NH)
# B31: ADC of Example 82 (antibody)
# heavy: B1 heavy with Q1E, E3Q
# light: B1 light with D1E, I2S, A10V, T13A, G155A
# modifications: toxophore-linker on Cys (via S); toxophore-linker on Cys (via S)
# B32: ADC of Example 85 (antibody)
# heavy: B1 heavy with Q1E, E3Q
# light: B1 light with D1E, I2S, A10V, T13A, G155A
# modifications: toxophore-linker on Cys (via S); toxophore-linker on Cys (via S)
# B33: ADC of Example 56 (antibody)
# heavy: B1 heavy with Q1E, E3Q
# light: B1 light with D1E, I2S, A10V, T13A, G155A
# modifications: toxophore-linker on Cys (via S); toxophore-linker on Cys (via S)
# B34: ADC of Example 114 (antibody)
# heavy: B1 heavy with Q1E, E3Q
# light: B1 light with D1E, I2S, A10V, T13A, G155A
# modifications: toxophore-linker on Cys (via S); toxophore-linker on Cys (via S)
# B35: ADC of Example 96 (antibody)
# heavy: B1 heavy with Q1E, E3Q
# light: B1 light with D1E, I2S, A10V, T13A, G155A
# modifications: toxophore-linker on Lys (via NH); toxophore-linker on Lys (via NH)
# B36: ADC of Example 51 (antibody)
# heavy: B1 heavy with Q1E, E3Q
# light: B1 light with D1E, I2S, A10V, T13A, G155A
# modifications: toxophore-linker on Cys (via S); toxophore-linker on Cys (via S)
# B37: ADC of Example 68 (antibody)
# heavy: B1 heavy with Q1E, E3Q
# light: B1 light with D1E, I2S, A10V, T13A, G155A
# modifications: toxophore-linker on Cys (via S); toxophore-linker on Cys (via S)
# B38: ADC of Example 121 (antibody)
# heavy: B1 heavy with Q1E, E3Q
# light: B1 light with D1E, I2S, A10V, T13A, G155A
# modifications: toxophore-linker on Lys (via NH); toxophore-linker on Lys (via NH)
# B39: ADC of Example 108 (antibody)
# heavy: B1 heavy with Q1E, E3Q
# light: B1 light with D1E, I2S, A10V, T13A, G155A
# modifications: toxophore-linker on Lys (via NH); toxophore-linker on Lys (via NH)
# B40: ADC of Example 95 (antibody)
# heavy: B1 heavy with Q1E, E3Q
# light: B1 light with D1E, I2S, A10V, T13A, G155A
# modifications: toxophore-linker on Cys (via S); toxophore-linker on Cys (via S)
# B41: ADC of Example 106 (antibody)
# heavy: B1 heavy with Q1E, E3Q
# light: B1 light with D1E, I2S, A10V, T13A, G155A
# modifications: toxophore-linker on Lys (via NH); toxophore-linker on Lys (via NH)
# B42: ADC of Example 113 (antibody)
# heavy: B1 heavy with Q1E, E3Q
# light: B1 light with D1E, I2S, A10V, T13A, G155A
# modifications: toxophore-linker on Cys (via S); toxophore-linker on Cys (via S)
# Target: T1, C4.4a on A549 cells transfected with …
# Assay: cell-based or functional assay
row,Binder,IC50 [nM] A549: C4.4a (cell viability) [nM]
1,B1,0.052
2,B2,0.062
3,B3,0.29
4,B4,0.037
5,B5,0.17
6,B6,0.035
7,B7,0.2
8,B8,3
9,B9,0.03
10,B10,0.1
11,B11,0.06
12,B12,0.2
13,B13,3
14,B14,0.27
15,B15,0.04
16,B16,0.1
17,B17,0.15
18,B18,0.07
19,B19,0.13
20,B20,0.29
21,B21,0.074

row,Binder,IC50 [nM] A549: C4.4a (cell viability) [nM]
1,B22,0.062
2,B23,0.045
3,B24,0.27
4,B25,0.32
5,B26,1
6,B27,> 100
7,B28,0.035
8,B29,0.1
9,B30,0.3
10,B31,0.06
11,B32,0.14
12,B33,0.037
13,B34,0.05
14,B35,0.018
15,B36,0.044
16,B37,0.02
17,B38,0.03
18,B39,0.03
19,B40,0.036
20,B41,0.05
21,B42,3

# Positions count from the first letter of the chain named.
